This test can be described thus: qHTS drug screen for cell cycle checkpoint inhibitors in PARPi-resistant BRCA-mutant ovarian cancer cell lines. (AID 1963452). To be noted: PEO1/OlaR viability, CellTiter-Glo luminescence, 96 h. The gist of the method: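 PEO1, PEO4 and PEO1/OlaR ovarian cancer cells, 600 per well, exposed 96 h at 37C to a dilution series. Viability read by CellTiter-Glo luminescence, normalized to DMSO and empty wells; activity summarized as Z-AUC.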
(In qHTS, concentration-response curves come from the screen itself.)

Where [1] appears, read: measured here: PEO1 parental viability.

From PubChem BioAssay (NCATS) come the findings set out here.

“And” between values parts separate entries of the source, which are not always exact repeats. Equal entries are not always repeated. The list shows a part of the results. The main result of the screen is listed elsewhere. These columns were measured beside it and carry no call. Potencies come from curve fits of mixed quality, noted in brackets.
Tags give direction and shape of the fitted curve.

With `Cc1ccc(C(=O)Nc2ccc(CN3CCN(C)CC3)c(C(F)(F)F)c2)cc1C#Cc1cnc2[nH]ncc2c1`, the AC50 (commonly the midpoint of the concentration-response curve, whichever way the signal moves) is 4.9 µM [falling, full curve] under setting [1] and 3.09 µM [falling, full curve] (measured here: PEO4 viability).
As for `CO[C@@H](C)Cn1c(=O)n(C)c2cnc3ccc(-c4cncc(C(C)(C)O)c4)cc3c21`, the AC50 is, setting by setting: under setting [1], 0.389 µM [falling, full curve]; (measured here: PEO4 viability) 0.436 µM [falling, full curve].
With `O=C1Nc2nc(-c3c(O)cccc3OCC3CC3)cc([C@@H]3CCCNC3)c2CO1`, the concentration at half-maximal activity (AC50) is, setting by setting: under setting [1], 15.5 µM [falling, single point]; (measured here: PEO4 viability) 15.5 µM [falling, single point].
As to `CCCc1cc(C)[nH]c(=O)c1CNC(=O)c1cc(-c2ccnc(N3CCN(C)CC3)c2)cc2c1cnn2C(C)C`, the AC50 was 21.9 µM [falling, single point] under setting [1] and 15.5 µM [falling, single point] (measured here: PEO4 viability).
`COc1cc([C@@H]2c3cc4c(cc3[C@@H](O[C@@H]3O[C@@H]5CO[C@@H](c6cccs6)O[C@H]5[C@H](O)[C@H]3O)[C@H]3COC(=O)[C@H]23)OCO4)cc(OC)c1O`: the AC50 was 0.245 µM [falling, full curve] under setting [1] and 0.347 µM [falling, full curve] (measured here: PEO4 viability).
In the case of `C=CC(=O)N1CCC(C2CCNc3c(C(N)=O)c(-c4ccc(Oc5ccccc5)cc4)nn32)CC1` (stereo unspecified), the AC50 is 15.5 µM [falling, single point] under setting [1] and 9.77 µM [falling, partial curve, poor fit] (measured here: PEO4 viability).
Regarding `Nc1nc(F)nc2c1ncn2[C@@H]1O[C@H](COP(=O)(O)O)[C@@H](O)[C@@H]1O`, the AC50 was 4.9 µM [falling, full curve] and 4.9 µM [falling, partial curve] under setting [1]; 13.8 µM [falling, partial curve] and 5.49 µM [falling, full curve, poor fit] (measured here: PEO4 viability).
For the compound `C[C@@H](C(=O)Nc1ccc(Cl)cc1)C1CCC(c2ccnc3ccc(F)cc23)CC1` (stereo partly specified), the half-maximal activity concentration (AC50) by setting is: under setting [1], 12.3 µM [falling, partial curve]; (measured here: PEO4 viability) 13.8 µM [falling, partial curve, poor fit].
As to `COc1ccc(N(C)c2nc(C)nc3ccccc23)cc1`, the AC50 reads like this: under setting [1], 0.0087 µM [falling, full curve]; (measured here: PEO4 viability) 0.0098 µM [falling, full curve].
Take `CC1(C)OCCn2c1nc1c(N3CCOCC3)nc(-c3cnc(N)nc3)nc12`: the AC50 runs as follows: under setting [1], 1.74 µM [falling, full curve]; (measured here: PEO4 viability) 2.19 µM [falling, full curve].
`O=C(Cc1ccc(-c2ccc(OCCN3CCOCC3)cc2)cn1)NCc1ccccc1`: the AC50 is 0.0389 µM [falling, full curve, poor fit] under setting [1] and 0.0436 µM [falling, full curve] (measured here: PEO4 viability).
`Cc1nnn(C)c1-c1cnc2c3ccc(C(C)(C)O)cc3n([C@H](c3ccccc3)C3CCOCC3)c2c1`: the AC50 under setting [1] was 0.347 µM [falling, partial curve] and the AC50 (measured here: PEO4 viability) was 3.47 µM [falling, partial curve].
On to `Cc1cc(C)c(CNC(=O)c2cc(-c3ccc(N4CCN(C)CC4)nc3)cc3c2c(C)cn3C(C)C)c(=O)[nH]1`, for which the AC50 runs as follows: under setting [1], 15.5 µM [falling, single point] and 27.5 µM [falling, partial curve, poor fit]; (measured here: PEO4 viability) 12.3 µM [falling, partial curve, poor fit] and 24.5 µM [falling, single point].
Consider `COCCNCc1ccc(-c2cc3nccc(Oc4ccc(NC(=O)C5(C(=O)Nc6ccc(F)cc6)CC5)cc4F)c3s2)nc1`, for which the AC50 is 4.9 µM [falling, full curve] under setting [1] and 2.45 µM [falling, full curve] (measured here: PEO4 viability).
As to `Oc1ccc(Nc2nc(-c3ccc(Cl)cc3)cs2)cc1`, the AC50 under setting [1] was 15.5 µM [falling, partial curve, poor fit] and the AC50 (measured here: PEO4 viability) was 13.8 µM [falling, partial curve].
Regarding `COc1cc(OC)cc(N(CCNC(C)C)c2ccc3ncc(-c4cnn(C)c4)nc3c2)c1`, the AC50 reads like this: under setting [1], 1.74 µM [falling, full curve]; (measured here: PEO4 viability) 3.47 µM [falling, full curve].
In the case of `CN1CCN(c2ccc3nc(-c4cc(C(C)(C)C)c(OCCCC(=O)NCCCN=[N+]=[N-])c(C(C)(C)C)c4)[nH]c3c2)CC1`, the AC50 runs as follows: under setting [1], 7.76 µM [falling, partial curve]; (measured here: PEO4 viability) 3.47 µM [falling, full curve].
As to `C=CC(=O)Nc1cccc(Oc2nc(Nc3ccc(N4CCN(C)CC4)cc3)nc3ccsc23)c1`, the AC50 is, setting by setting: under setting [1], 12.3 µM [falling, partial curve]; (measured here: PEO4 viability) 9.77 µM [falling, partial curve].
In the case of `C[C@@H](OC[C@@]1(c2ccccc2)CC[C@]2(CCC(=O)N2)CN1)c1cc(C(F)(F)F)cc(C(F)(F)F)c1`, the AC50 runs as follows: under setting [1], 15.5 µM [falling, single point]; (measured here: PEO4 viability) 13.8 µM [falling, single point].
Regarding `Cn1ncc(Cl)c1-c1cc(C(=O)N[C@H](CN)Cc2ccc(F)c(F)c2)sc1Cl`, the AC50 under setting [1] is 17.4 µM [falling, partial curve] and the AC50 (measured here: PEO4 viability) was 24.5 µM [falling, single point].
Consider `CCN(CC)CCNc1ccc(C)c2sc3ccccc3c(=O)c12`, for which the AC50 is, setting by setting: under setting [1], 24.5 µM [falling, single point]; (measured here: PEO4 viability) 19.5 µM [falling, single point].
`C[C@H]1CNC(=O)c2cnn3ccc(nc23)N[C@H](C)c2cc(F)ccc2O1`: the AC50 runs as follows: under setting [1], 1.55 µM [falling, full curve]; (measured here: PEO4 viability) 1.55 µM [falling, full curve].
Turning to `O=C([C@@H](Cc1cccc(C(F)(F)F)c1)NS(=O)(=O)c1cc(F)c2c(c1)CCNC2)N1CCCC1`, the AC50 under setting [1] is 1.38 µM [falling, partial curve, poor fit] and the AC50 (measured here: PEO4 viability) is 19.5 µM [falling, partial curve, poor fit].
